Experimental data as given in publication PMC10004157, “Exploration of Pyrido[3,4-d]pyrimidines as Antagonists of the Human Chemokine Receptor CXCR2” (Molecules, 2023).

Assays:
[1] = target: T1, human chemokine receptor CXCR2 (Homo sapiens, UniProt P25025); settings: for CXCR2 antagonistic potency compared to the original hit 2: comparison of IC50 values; for CXCR2 antagonistic potency compared to the original hit 2 / CXCR2 antagonism (result in words): calcium mobilization assay; for CXCR2 antagonism (result in words): U87.CXCR2 cells
T1 sequence (P25025 1-360): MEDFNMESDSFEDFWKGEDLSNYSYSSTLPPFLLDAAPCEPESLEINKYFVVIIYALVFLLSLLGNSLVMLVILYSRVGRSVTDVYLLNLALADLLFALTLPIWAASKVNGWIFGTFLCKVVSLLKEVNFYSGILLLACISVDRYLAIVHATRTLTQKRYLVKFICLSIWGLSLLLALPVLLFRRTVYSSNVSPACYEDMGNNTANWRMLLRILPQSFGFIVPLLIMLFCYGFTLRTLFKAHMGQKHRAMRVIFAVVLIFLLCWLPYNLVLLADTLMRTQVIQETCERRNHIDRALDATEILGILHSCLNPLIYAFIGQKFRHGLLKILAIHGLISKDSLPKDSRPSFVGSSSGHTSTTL

[2] = target: T1, human chemokine receptor CXCR2; assay: cell-based

SMILES	IC50 ([1]; read-out: IC50 (µM): compound concentration that inhibits CXCL8 induced intracellular calcium flux by 50%, U87 cells overexpressing CXCR2, 15 nM CXCL8, 10 min preincubation, average ± SD of at least three experiments)	IC50 [2]	CXCR2 antagonistic potency compared to the original hit 2 [1]	CXCR2 antagonism (result in words) [1]
C[C@H](CO)Nc1nc(SCc2cccc(F)c2F)nc2cnccc12 [Compound 2]	0.11 ± 0.019 µM			
C[C@H](CO)Nc1nc(SCc2cccc(F)c2F)nc2cncc(Cl)c12 [Compound 9, (2R)-2-[(5-Chloro-2-(2,3-difluorobenzylmercapto)-pyrido[3,4-d]pyrimidine-4-yl)amino]propanol]		11 µM and 11.3 µM	one hundred fold less potent	
C[C@H](CO)Nc1nc(SCc2cccc(F)c2F)nc2cnc(Cl)cc12 [Compound 16a, (2R)-2-[(6-Chloro-2-(2,3-difluorobenzylmercapto)-pyrido[3,4-d]pyrimidine-4-yl)amino]propanol]		> 30 µM		completely devoid of CXCR2 antagonism
C[C@H](CO)Nc1nc(SCc2cccc(F)c2F)nc2cnc(-n3ccnc3)cc12 [Compound 16b, (2R)-2-[(6-Imidazolyl-2-(2,3-difluorobenzylmercapto)-pyrido[3,4-d]pyrimidine-4-yl)amino]propanol]		> 30 µM		did not have any beneficial effect on CXCR2 antagonism
C[C@H](CO)Nc1nc(SCc2cccc(F)c2F)nc2cnc(-c3ccccc3)cc12 [Compound 17a, (2R)-2-[(2-(2,3-Difluorobenzylmercapto)-6-phenyl-pyrido[3,4-d]pyrimidine-4-yl)amino]propanol]		> 30 µM		did not have any beneficial effect on CXCR2 antagonism
C[C@H](CO)Nc1nc(SCc2cccc(F)c2F)nc2cnc(-c3ccco3)cc12 [Compound 17b, (2R)-2-[(2-(2,3-Difluorobenzylmercapto)-6-(2-furanyl)-pyrido[3,4-d]pyrimidine-4-yl)amino]propanol]		0.54 ± 0.26 µM	five-fold reduced potency	
Cc1ccc(-c2cc3c(N[C@H](C)CO)nc(SCc4cccc(F)c4F)nc3cn2)o1 [Compound 17c, (2R)-2-[(2-(2,3-Difluorobenzylmercapto)-6-(5-methylfuran-2-yl)-pyrido[3,4-d]pyrimidine-4-yl)amino]propanol]		> 30 µM		complete loss of activity
C[C@H](CO)Nc1nc(SCc2cccc(F)c2F)nc2cnc(-c3cccs3)cc12 [Compound 17d, (2R)-2-[(2-(2,3-Difluorobenzylmercapto)-6-(2-thienyl)-pyrido[3,4-d]pyrimidine-4-yl)amino]propanol]		> 30 µM		did not have any beneficial effect on CXCR2 antagonism
C[C@H](CO)Nc1nc(SCc2cccc(F)c2F)nc2cnc(N)cc12 [Compound 21, (2R)-2-[(6-Amino-2-(2,3-difluorobenzylmercapto)-pyrido[3,4-d]pyrimidine-4-yl)amino]propanol]		> 30 µM		complete loss of CXCR2 antagonistic activity
CC[C@H](CO)Nc1nc(SCc2cccc(F)c2F)nc2cnccc12 [Compound 24a, (2R)-2-[(2-(2,3-Difluorobenzylmercapto)-pyrido[3,4-d]pyrimidine-4-yl)amino]butanol]		> 30 µM		
CC(C)(CO)Nc1nc(SCc2cccc(F)c2F)nc2cnccc12 [Compound 24b, 2-[(2-(2,3-Difluorobenzylmercapto)-pyrido[3,4-d]pyrimidine-4-yl)amino]-2-methyl-propan-1-ol]		> 30 µM		
OCC(O)CNc1nc(SCc2cccc(F)c2F)nc2cnccc12 (centres unmarked) [Compound 24c, 3-[(2-(2,3-Difluorobenzylmercapto)-pyrido[3,4-d]pyrimidine-4-yl)amino]propan-1,2-diol]		> 30 µM		
OCCNc1nc(SCc2cccc(F)c2F)nc2cnccc12 [Compound 24d, 3-[(2-(2,3-Difluorobenzylmercapto)-pyrido[3,4-d]pyrimidine-4-yl)amino]ethanol]		> 30 µM		
OCCOc1nc(SCc2cccc(F)c2F)nc2cnccc12 [Compound 24e, 3-[(2-(2,3-Difluorobenzylmercapto)-pyrido[3,4-d]pyrimidine-4-yl)oxy]ethanol]		> 30 µM		lacking CXCR2 antagonism
C[C@H](CO)Nc1nc(NCc2cccc(F)c2F)nc2cnccc12 [Compound 26a, (2R)-2-[(2-(2,3-Difluorobenzylamino)-pyrido[3,4-d]pyrimidine-4-yl)amino]propanol]		> 30 µM		devoid of CXCR2 antagonistic activity
C[C@H](CO)Nc1nc(OCc2cccc(F)c2F)nc2cnccc12 [Compound 26b, (2R)-2-[(2-(2,3-Difluorobenzyloxy)-pyrido[3,4-d]pyrimidine-4-yl)amino]propanol]		> 30 µM		devoid of CXCR2 antagonistic activity
C[C@H](CO)Nc1nc(Sc2ccccc2)nc2cnccc12 [Compound 26c, (2R)-2-[(2-(Phenylmercapto)-pyrido[3,4-d]pyrimidine-4-yl)amino]propanol]		> 30 µM		inactive as CXCR2 antagonists
C[C@H](CO)Nc1nc(SCCc2ccccc2)nc2cnccc12 [Compound 26d, (2R)-2-[(2-(Phenylethylmercapto)-pyrido[3,4-d]pyrimidine-4-yl)amino]propanol]		> 30 µM		inactive as CXCR2 antagonists
CCCCCCSc1nc(N[C@H](C)CO)c2ccncc2n1 [Compound 26e, (2R)-2-[(2-(Hexylmercapto)-pyrido[3,4-d]pyrimidine-4-yl)amino]propanol]		> 30 µM		

“And” between values parts separate entries of the source, which are not always exact repeats. Identical values can stand only once. Like-named read-outs stand apart in the source and are kept apart here.
